Test results as given in the supplement of paper PMC10600219.
Structures can show the parent of a compound that is named as a salt. Whole data set: some 2,800 compounds, median “cell viability relative to vehicle” near 0.98, cut for the lowest 2% near 0.45. The list shows a part of the results.

System: NCI-H2228 alectinib-DTP
Experiment: cell viability relative to vehicle (fraction of vehicle); NCI-H2228 is an ALK-positive lung cancer line and DTP means drug-tolerant persister; higher = less growth inhibition
Conditions: 100 nM; treatment time 6 days
How it was run: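 NCI-H2228 parental cells and drug-tolerant persister cells were plated in 384-well plates; the persisters had been generated with 1000 nM of a targeted drug over 13 days. One day later, the 3114-agent TargetMol anti-cancer compound library was added at 100 nM, with DMSO serving as vehicle. ATP was measured 6 days after that using the CellTiter-Glo 3D Cell Viability Assay. Values are cell viability expressed relative to vehicle-treated cells.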

Compound | cell viability
COc1cccc2c1C(=O)c1c(O)c3c(c(O)c1C2=O)C[C@@](O)(C(C)=O)C[C@@H]3O[C@H]1C[C@H](N)[C@H](O)[C@H](C)O1 [Daunorubicin hydrochloride] | 0.638
CONC(=O)Nc1ccc(-c2sc3c(c2CN(C)C)c(=O)n(-c2ccc(OC)nn2)c(=O)n3Cc2c(F)cccc2F)cc1 [Relugolix] | 1.12
Cc1cc(Cn2nnc3c(-c4ccco4)nc(N)nc32)ccc1N [Vipadenant] | 0.954
COc1cc(-c2oc3cc(O)cc(O)c3c(=O)c2O)ccc1O [Isorhamnetin] | 0.889
CCn1cc(C(=O)O)c(=O)c2c(N)c(F)c(NC3CCCCC3)cc21 | 1.1
CC/C(=C(\c1ccc(O)cc1)c1ccc(OCCNC)cc1)c1ccccc1 [(E/Z)-Endoxifen] | 1.13
Cc1ccc(S(=O)(=O)Cc2nc(-c3ccc(C(=O)NCc4cccnc4)cc3)oc2C)cc1 | 0.955
S=C(S)N1CCCC1 [Pyrrolidinedithiocarbamate ammonium] | 0.998
CN(c1ccccc1CNc1nc(Nc2ccc3c(c2)CC(=O)N3)ncc1C(F)(F)F)S(C)(=O)=O | 1.08
CC(C)COc1ccc(CNC(=O)N(Cc2ccc(F)cc2)C2CCN(C)CC2)cc1 [Pimavanserin tartrate] | 1.06
CC(C)COc1ccc(CNC(=O)N(Cc2ccc(F)cc2)C2CCN(C)CC2)cc1 [Pimavanserin] | 0.876
O=c1oc2c(O)c(O)cc3c(=O)oc4c(O)c(O)cc1c4c23 [Ellagic acid] | 1.04
COc1cc(N2CCN(C)CC2)ccc1Nc1ncc2c(n1)N(C)c1ccccc1C(=O)N2 | 0.78
c1ccc2c(CC3=NCCN3)cccc2c1 [Naphazoline hydrochloride] | 1.19
CCN(CC)CC(=O)Nc1c(C)cccc1C [Xylocaine] | 1.1
CC(=O)c1ccc(O)c(O)c1 [3',4'-Dihydroxyacetophenone] | 0.925
CC(=O)c1cc2c(o1)C(=O)c1ccccc1C2=O [Napabucasin] | 0.984
Cc1ccccc1C(C(=O)NC1CCCCC1)N(C(=O)Cn1ccnc1C)c1cccc(F)c1 (stereo not drawn) | 1.1
CC(=O)NCCCCCC(=O)O [Acexamic Acid] | 1.22
O=c1n(CCCN2CCN(c3cccc(Cl)c3)CC2)nc2ccccn12 [Trazodone hydrochloride] | 0.994
O=C(O)c1cc(=O)[nH]c(=O)[nH]1 [Orotic acid] | 1.06
C=C[C@H]1CN2CC[C@H]1C[C@H]2[C@H](O)c1ccnc2ccc(OC)cc12 [Quinine] | 1.16
CC1(C)S[C@@H]2[C@H](NC(=O)[C@H](N)c3ccccc3)C(=O)N2[C@H]1C(=O)O [Ampicillin sodium] | 1.12
O=C(O)c1ccc2cc(-c3ccc(O)c(C45CC6CC(CC(C6)C4)C5)c3)ccc2c1 | 0.819

Compound | cell viability
O=C(NC[C@H](O)CO)c1ccncc1Nc1ccc(I)cc1F [Pimasertib] | 0.836
Oc1ccc(-c2nc(-c3ccc(F)cc3)c(-c3ccncc3)[nH]2)cc1 | 1.17
Cc1ccc(C(=O)Nc2ccc(CN3CCN(C)CC3)c(C(F)(F)F)c2)cc1C#Cc1cnc2[nH]ncc2c1 | 0.423
Cc1ccc(C(=O)Nc2ccc(CN3CCN(C)CC3)c(C(F)(F)F)c2)cc1C#Cc1cnc2[nH]ncc2c1 [GZD824 Dimesylate] | 0.33
O=C(O)c1ccccc1OP(=O)(O)O [Fosfosal] | 0.837
C/C=C(/C(=C/C)c1ccc(O)cc1)c1ccc(O)cc1 [Dienestrol] | 1.13
CC1=C(/C=C/C(C)=C/C=C/C(C)=C/CO)C(C)(C)CCC1 [Retinol] | 1.01
OCCn1cc(-c2cnc3nnn(Cc4ccc5ncccc5c4)c3n2)cn1 | 1.03
COc1ccc2c3ccnc4ccc(=O)n(c2c1)c43 [9-Methoxycanthin-6-one] | 0.841
Nc1cc(N2CCCCC2)nc(N)[n+]1[O-] [Minoxidil] | 1.08
C[C@]12CCC(=O)C=C1[C@@H]1C[C@@H]1[C@H]1[C@@H]3[C@@H]4C[C@@H]4[C@@]4(CCC(=O)O4)[C@@]3(C)CC[C@@H]12 [Drospirenone] | 0.859
O=[N+]([O-])c1ccc(Nc2ccccc2-c2ccccc2)c2nonc12 | 0.879
COc1ccc2cc([C@H](C)C(=O)O)ccc2c1 [Naproxen] | 0.744
COC(=O)C[C@](O)(CCCC(C)(C)O)C(=O)O[C@@H]1C(OC)=C[C@]23CCCN2CCc2cc4c(cc2[C@H]13)OCO4 [Homoharringtonine] | 0.2
C=C(C)[C@@H]1CC[C@]2(CO)CC[C@]3(C)[C@H](CC[C@@H]4[C@@]5(C)CC[C@H](O)C(C)(C)[C@@H]5CC[C@]43C)[C@@H]12 [Betulin] | 0.922
CC(=O)O/N=C1/C(c2c(O)[nH]c3cc(Br)ccc23)=Nc2ccccc21 [BIO-acetoxime] | 0.726
COc1cccc2c1C(=O)c1c(O)c3c(c(O)c1C2=O)C[C@@](O)(C(=O)CO)C[C@@H]3O[C@H]1C[C@H](N)[C@@H](O)[C@H](C)O1 [Epirubicin hydrochloride] | 0.767
CN1CCC(Nc2nc(Nc3ccc(Oc4ccccc4)cc3)c3c(=O)[nH]cc(Br)c3n2)CC1 | 0.973
CC(=O)O[C@H]1C(=O)[C@@]2(C)[C@H]([C@H](OC(=O)c3ccccc3)[C@]3(O)C[C@H](OC(=O)[C@H](O)[C@@H](NC(=O)c4ccccc4)c4ccccc4)C(C)=C1C3(C)C)[C@]1(OC(C)=O)CO[C@@H]1C[C@@H]2O [Paclitaxel] | 0.472
COc1cc2nc(N3CCCC3)nc(NCCCCCN3CCCC3)c2cc1OC | 1.02
Nc1ccc(-c2cnc(N)c(-c3ccc(Cl)cc3)c2)cn1 | 1.07
CC[C@H](CC#N)OC(=O)N[C@@H](C)c1cccc(NC(=O)Nc2ccc(-c3cnco3)c(OC)c2)c1 | 0.694
Cn1cnc2c(F)c(Nc3ccc(Br)cc3F)c(C(=O)NOCCO)cc21 [Binimetinib] | 0.825
O=C1[C@@H]2[C@H]3CC[C@H](C3)[C@@H]2C(=O)N1C[C@@H]1CCCC[C@H]1CN1CCN(c2nsc3ccccc23)CC1 [Lurasidone hydrochloride] | 0.947
